# In paper PMC4336329 (PLoS ONE, 2015):
# The campaign covered roughly 310,000 compounds. About 2,200 (0.71%) showed an effect of 50% or more. Effects have a minus sign here. The list shows a part of the results.
# Target: human ether-à-go-go-related gene (hERG) potassium channel (human, UniProt Q12809)
# Test: primary screen, population patch clamp on CHO cells stably expressing hERG
# human ether-à-go-go-related gene (hERG) potassium channel, sequence (Q12809 whole entry, looked up): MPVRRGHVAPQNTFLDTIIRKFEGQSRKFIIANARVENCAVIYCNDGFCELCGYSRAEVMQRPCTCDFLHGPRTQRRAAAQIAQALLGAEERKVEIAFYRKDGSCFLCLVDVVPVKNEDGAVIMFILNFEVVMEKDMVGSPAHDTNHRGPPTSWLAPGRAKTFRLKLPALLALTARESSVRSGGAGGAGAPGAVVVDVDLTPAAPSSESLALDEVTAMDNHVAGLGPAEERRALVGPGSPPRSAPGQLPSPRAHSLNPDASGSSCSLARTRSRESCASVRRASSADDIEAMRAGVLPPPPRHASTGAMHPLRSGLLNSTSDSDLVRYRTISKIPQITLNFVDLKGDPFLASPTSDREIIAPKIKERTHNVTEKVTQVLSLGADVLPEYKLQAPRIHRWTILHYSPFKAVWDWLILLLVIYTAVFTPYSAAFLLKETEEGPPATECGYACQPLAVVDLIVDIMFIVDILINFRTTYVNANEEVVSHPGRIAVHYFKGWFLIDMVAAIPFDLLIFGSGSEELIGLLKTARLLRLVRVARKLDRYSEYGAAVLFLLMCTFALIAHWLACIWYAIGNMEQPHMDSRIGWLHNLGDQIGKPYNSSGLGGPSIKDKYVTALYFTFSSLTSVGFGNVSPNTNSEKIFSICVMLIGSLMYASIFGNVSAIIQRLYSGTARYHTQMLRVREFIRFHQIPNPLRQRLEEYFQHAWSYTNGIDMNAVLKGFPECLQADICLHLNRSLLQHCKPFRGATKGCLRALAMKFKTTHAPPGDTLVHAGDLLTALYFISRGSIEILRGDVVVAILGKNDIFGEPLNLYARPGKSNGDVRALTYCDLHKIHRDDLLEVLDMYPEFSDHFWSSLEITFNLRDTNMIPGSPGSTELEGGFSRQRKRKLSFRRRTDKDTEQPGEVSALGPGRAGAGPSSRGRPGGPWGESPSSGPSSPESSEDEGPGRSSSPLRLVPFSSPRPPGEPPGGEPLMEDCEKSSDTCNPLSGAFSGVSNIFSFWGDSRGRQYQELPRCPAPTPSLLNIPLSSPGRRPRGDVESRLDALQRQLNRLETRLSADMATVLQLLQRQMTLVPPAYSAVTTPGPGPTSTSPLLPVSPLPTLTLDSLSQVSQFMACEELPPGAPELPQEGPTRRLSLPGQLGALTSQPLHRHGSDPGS
row,SMILES,"hERG current change (%, negative = inhibition) at 1uM [%]"
1,O=C(O)C1CC(=O)N(CCOc2ccccc2)C1 (centres unmarked),1.69
2,CC[C@H](C)NC(=O)c1ccc(Cn2c(=S)[nH]c3c([nH]c4ccc(OC)cc43)c2=O)cc1,0.348
3,CC(=O)c1ccc(Oc2nc(-c3cccnc3)nc3ccccc23)cc1,6.11
4,CCC(C)N1CCN(S(=O)(=O)c2ccc(NC(C)=O)cc2)CC1 (centres unmarked),0.454
5,O=C(CCn1nc(-c2ccccc2)c2ccccc2c1=O)NCC1CCCO1 (centres unmarked),6.89
6,O=C(CN1C(=O)c2ccccc2S1(=O)=O)N1CCN(c2cccc(Cl)c2)CC1,11.8
7,CCCn1c(SCC(N)=O)nnc1-c1ccco1,14.9
8,CCOc1ccc(-c2c(C(=O)N/N=C/c3ccc(OC(C)C)cc3)nnn2-c2nonc2N)cc1,13.7
9,CCOC(=O)N1CCN(S(=O)(=O)c2ccc(C(=O)Nc3sc4c(c3C(=O)OC)CCN(C)C4)cc2)CC1.Cl,11
10,CCOc1cc(S(=O)(=O)N2CCN=C2Cc2ccccc2)ccc1F,-4.26
11,CC(C)CCn1c(SCC(=O)c2ccccc2)nc2c1c(=O)[nH]c(=O)n2C,10.8
12,NC(Cc1cc(O)c(O)cc1O)C(=O)O (centres unmarked),7.7
13,COc1ccc(OC)c(-c2cc(C(=O)N3CCN(c4ncccn4)CC3)c3ccccc3n2)c1,0.0778
14,C/C=C(/C)C(=O)Nc1cccc(C2=NOC3(C2)C[C@@H](C(N)=O)N(C(=O)CC(c2ccccc2)c2ccccc2)C3)c1 (some centres unmarked),9.03
15,CC(C)c1ccc(CN2C(=O)c3ccccc3S2(=O)=O)cc1,13
16,COc1ccccc1S(=O)(=O)NCc1ccc(C(=O)N(C)Cc2ccc(F)cc2)cc1,10.2
17,CCOc1ccc(C2SCC(=O)N2c2c(C)n(C)n(-c3ccccc3)c2=O)cc1 (centres unmarked),12.3
18,CCOC(CNC(=O)Cn1nc(C)c2ccccc21)OCC,8.42
19,CCOC(=O)C1CCCN(C(=O)c2cc(-c3ccncc3)nc3ccccc23)C1 (centres unmarked),-8.26
20,CCOC(=O)COc1cccc2c(=O)n(CC(=O)N3CCc4ccccc43)ccc12,9.56
21,O=C(c1cc([N+](=O)[O-])ccc1N1CCOCC1)N1CCN(S(=O)(=O)c2cc(Cl)ccc2Cl)CC1,3.49
22,Cl.Oc1ccc(CCNc2c3ccccc3nc3ccccc23)cc1O,-3.93
23,CCN(Cc1ccccc1)c1ccc(N=Nc2nn(C)c(C)c2[N+](=O)[O-])cc1,7.07
